Results published in the supplement of paper PMC10126150.
Values marked as one replicate rest on one cluster of the flow cell; about a third of the high ones do not repeat.

Tested on: ATP
Test: switch fluorescence ratio, 500 uM ATP over buffer (Cy3 cluster intensity, sum of 5 cycles each) (fold (ratio)); higher = stronger signal-on switching upon ATP binding; sequences stand for … in TCGTCGGCAGCGTCAGATGTGTATAAGAGACAGTTTTTTTTTTTTTTTTTTTTTTTTT…TC
Conditions: aptamer strand: ATP DNA aptamer (quencher-CACCTGGGGGAGTATTGCGGAGGAAGG + anchor), 100 nM annealed; ATP concentration: 500 uM; one replicate
Procedure, shortened: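 Exposure to 500 uM ATP lasted 15 min at 22 °C before imaging, and a selection-buffer image was taken beforehand, for Cy3-labelled switching-strand clusters on a modified Illumina MiSeq flow-cell annealed to 100 nM quencher-labelled ATP aptamer. Five buffer/ATP cycles were run with NaOH stripping and re-annealing between them. The fluorescence ratio per cluster is summed target-cycle over summed buffer-cycle Cy3 intensity, averaged per switch-domain sequence. Clusters outside 100-1000 RFU were excluded.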

Sequence	switch fluorescence ratio
TAGTGGTCTT	1
AAGCGGCGTG	0.985
AGGCATTATG	1.05
AAAGGCTAAA	0.997
TAGGCGGC	0.998
CTTGAAATGC	1.09
TAGATGTTAG	0.998
GGCCGAGGAT	0.992
TACAATGCCC	1.04
GCTGCATTCC	1.44
CGTTTGTCCA	0.953
TCCCTACAGT	1.05
GAAGGCATGT	0.966
CTCTGGATAT	1.36
AAATCAAGGG	1.01
TTGCGCTAAC	1.46
GCGCTGTACG	1.2
TACTACCGTT	1.04
ATAGGTGCCA	1.03
GCGGCGAGAT	1.01
ACTTAGATGG	1.07
TCTTTACAAT	1.68
CCTTGGGGAC	2.77
TGTAATACAT	1.02
CTCCGACAAA	4.17

Sequence	switch fluorescence ratio
TTGGTATTGG	0.943
GCACGTATAC	2.3
CAAATGAATT	1.03
CTTATGGTTA	0.973
AAATCTGTTA	1.02
CACTCGAGTT	1.04
ATGGTTGTGG	1.01
AGGGCACTTG	1.01
AGATGGGAGA	0.99
ACTCTTTTTA	1.02
GCCATGGGTC	0.961
AGAGTTACAC	1.14
GGCGACGTA	1.01
GATGTACCCT	1.1
GCTATCATGT	0.976
ACTCCGGTGG	1.08
GGGGCTAGCA	1.05
AATAGTTATA	1.02
TTCATGGATG	0.987
CGTCGTCCTC	1
TTATCTGGCT	1.03
CGTGGGGTCT	0.968
TGCCTATTTT	1.01
TCTGGGACGG	1.01
TGACTAAGGG	0.968

Sequence	switch fluorescence ratio
ACCATAAAGG	1.01
CCCGGGCGCG	1.12
AGTTTCGGTG	0.98
GACGTGCGTA	1.04
CATTCGGGGA	0.987
TCTCAGCTC	1.27
TAGGCTTAGA	0.997
GATGGATTG	1.06
CGGCGAAATG	1.01
TTCGGTCTGT	1
GATCATTACT	0.989
CTCCTAGGC	1.28
AATTTATGTG	1.02
CCTCGGGAAT	6.19
AGGTACGGTG	1.06
CGCGGGCCTA	1
TGCGCGTGAC	1.06
CCAGACAGGA	0.986
ATATCACCAT	1.03
TTAATCGCAA	3.17
GAACGATGGG	1.01
TGATACGTAT	1.03
ATTATGCAC	1.09
GCCTACATCA	1.01
GCGGAACGCA	0.99

Sequence	switch fluorescence ratio
ACCATTGCC	1.01
TCTAGTGTT	0.989
CTTGTGACGA	1.04
TCTTAGGGTC	0.999
GCTCATAACT	1.03
TGTTCGGAGG	1.01
GAGCGTAATA	1.37
GAGGGATAC	1.35
AGTCCTTATG	0.954
GGCGGACTGA	0.992
GGGTGTAATA	1.03
GGCTTTACTG	0.95
AAAGATCGCT	1.01
CATTCATCTG	1.14
GATATCACGA	1.02
GTTGCTTTCG	0.962
CATAAAGGA	1.02
CTCAGGTGAA	2.06
GCCGTCGC	1.04
TTAACGTCGT	0.983
TTACGTGTCC	1.05
CGTCATCGAC	1.02
ACCAGGTTTC	1.12
GCGTTCAAGT	0.963
TAGATTGTCA	0.981

Sequence	switch fluorescence ratio
ACTTTGTGCG	1.06
TGATGTTATC	0.945
AAACGGCAGC	1.06
TCCAGCAGTG	1.19
AATGGGGAAC	1
GTTGAGATTG	0.958
CAAAGATGGT	0.993
TGGTGAACCA	1.01
CTTAGCACGG	1.02
CGGATACCGA	1.23
TCAACGGAAG	1.07
CGATCGTTAC	3.43
TGATTTCGAT	0.997
TAGCGGGCCC	0.984
TGTATTCCCA	1.01
CAGCTGCCGC	1.03
TTAGTGGTGT	0.97
TCTTATACAT	1.04
ATTGCGGAAC	1.07
AGAATGTCGT	1
TCCAAGAGGC	1.56
ACTTCAAGAT	1.05
GTTGCCAGCG	0.995
TTATGTCGCA	0.997
ATGGACTCAG	1.06

Sequence	switch fluorescence ratio
TCTTACGTAG	0.968
TTCTACGAGG	0.983
ATGCATCACG	0.961
GTGTAGTGAG	0.962
CAGAGCTCTA	1.06
TCGGGCCTG	0.99
TGACTTGGTG	0.987
ATCTATAGGA	0.958
CGTCATATCA	1.01
ACAAGCTGGG	0.944
GATCGAAAAC	1.03
GATTCTATAT	0.996
CCCCATATGT	1.02
GTAAAATTTG	0.993
GGGGACTGTT	0.953
GGAAGAAAT	1.01
TGTTGGTTAA	0.96
TATTTGGCGC	0.984
ATACGAGAT	1.04
GTGGCTGAG	0.99
CGATTGTCCG	1
TTAAAAAGGC	1.13
TCATCCGGAG	2.74
GATAACAGTA	1.06
TCGTATTAGT	1.05

Sequence	switch fluorescence ratio
GGCGCGGAAT	1.05
CTTTCCGAAC	1.58
CGTTACACGG	1.01
CACTGTCGCG	1.01
CCTAGGGATT	1.04
GGCCTCTTTC	1.02
GCGCCTCGGA	1
CGTAGGGGCG	0.888
CATCCATAGG	1.01
GGCCCTCCCT	1.07
GTGGCTGTTC	1.01
GGAAATGCTT	1.03
CCGAGTATTC	2.07
GATTTCCTCA	1.06
AGCCAGGGAA	1.03
GGTAGTGATG	0.979
AGGTCGCACG	1.02
CTAATGAAGA	0.978
CACCTTTGG	0.992
TAGCGGATTG	1.02
ATTTTGAAGG	0.975
TTTAAGTTAC	1.07
AACCCTTGTG	0.971
AGCCGTAACA	0.992
GACCCAGACA	1.04

Sequence	switch fluorescence ratio
TCATGCGCTC	2.38
CGAAACTATA	1.03
GGATAAGTC	0.991
AAATATCCCT	1.11
GGAGATAGAA	1.07
GTCAGGATGG	1.01
TGTTAGGAGT	1.07
TTTCGACTCA	1.03
ACTAATTGGT	1.04
TCAGATTTTT	0.931
TAGGAATTGG	1.1
CAAAATGCGA	2.36
TCCCTTTAGG	1.01
TGATATCATT	0.993
GTTCGTTGGA	1.01
ATACCAATAA	1.17
GTTCTTGCAG	1.01
GCAGTTTATG	0.998
CTGGAGGATT	1.04
CCTGATAAAA	0.996
AGAAGCCTGT	0.965
AACGGTAGAG	1.01
TACCTCTTTT	1
TCTATAGAAG	1.02
AAGCAGTTTT	0.98
